In all, about 33,000 sequences were measured (“E-score (-0.5 to 0.5)”: median about -0.035, highest 2% from about 0.35 on). This is one part of the list.
Target: T1, Pdr3 (UniProt P33200)
T1 sequence: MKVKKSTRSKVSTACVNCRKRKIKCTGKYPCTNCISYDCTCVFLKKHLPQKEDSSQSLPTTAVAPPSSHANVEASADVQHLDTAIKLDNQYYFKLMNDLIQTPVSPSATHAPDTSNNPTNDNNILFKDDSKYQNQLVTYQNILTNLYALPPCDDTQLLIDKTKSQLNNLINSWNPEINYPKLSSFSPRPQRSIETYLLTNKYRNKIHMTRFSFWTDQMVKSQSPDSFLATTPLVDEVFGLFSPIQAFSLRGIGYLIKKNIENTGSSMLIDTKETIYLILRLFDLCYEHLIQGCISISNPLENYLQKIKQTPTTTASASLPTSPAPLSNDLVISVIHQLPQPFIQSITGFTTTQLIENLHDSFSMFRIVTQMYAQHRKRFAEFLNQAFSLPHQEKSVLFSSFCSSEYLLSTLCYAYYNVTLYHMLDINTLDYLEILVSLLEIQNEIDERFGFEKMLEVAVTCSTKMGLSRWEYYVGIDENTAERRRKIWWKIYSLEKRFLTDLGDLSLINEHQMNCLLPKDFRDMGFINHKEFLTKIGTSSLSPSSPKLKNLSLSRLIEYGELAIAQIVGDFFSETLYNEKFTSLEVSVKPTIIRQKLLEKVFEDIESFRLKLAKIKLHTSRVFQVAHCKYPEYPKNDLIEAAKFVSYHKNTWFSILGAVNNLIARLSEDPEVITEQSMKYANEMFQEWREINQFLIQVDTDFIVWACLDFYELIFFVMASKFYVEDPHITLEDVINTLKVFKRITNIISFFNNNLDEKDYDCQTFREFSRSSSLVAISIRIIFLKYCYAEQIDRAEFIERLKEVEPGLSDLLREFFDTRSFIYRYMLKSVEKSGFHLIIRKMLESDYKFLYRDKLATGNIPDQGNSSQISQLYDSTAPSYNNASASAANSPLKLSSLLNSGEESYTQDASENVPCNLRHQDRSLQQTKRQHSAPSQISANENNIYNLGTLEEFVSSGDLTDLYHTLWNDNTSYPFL
Assay: PBM E-score (8-mer binding enrichment) (E-score (-0.5 to 0.5)); higher = stronger / more preferred TF binding; most listed sequences are background and not binding sites
Details: protein concentration: 200 nM; construct: GST-full length
Outline: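 Universal all-10-mer Agilent arrays, fresh or stripped once, were converted to double-stranded form by primer extension. GST-tagged yeast transcription factors from PURExpress in vitro transcription/translation, full-length or DNA-binding domain only, were applied at about 100-200 nM and detected with fluorescent anti-GST. After masliner normalisation, the Universal PBM Analysis Suite scored each ungapped eight-base word together with its reverse complement by E-score.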

Sequence | PBM E-score
ACACTCCC | 0.0199
CATTTTCA | 0.148
CAGGAATA | 0.0568
GGTCCGTA | 0.293
ATCAGCAG | -0.0556
ACAGCGTC | 0.11
CACTGGAG | -0.197
AGGAGCCT | -0.221
ACATCCGG | 0.378
GCTTGGGA | -0.0396
CGGACGCC | 0.283
AATGGCCT | 0.179
GGATGGAA | 0.167
AGGCCTGG | -0.166
ACACAGCG | 0.185
TAGTCCAA | -0.193
CGTTCCAC | 0.104
AGTACTGG | -0.222
ACATCGTA | -0.0633
ATTAAAGA | 0.0813
ATGTTTGC | -0.0795
TCGTTCCA | -0.253
ACATACGA | -0.107
TCCGTGCA | 0.351
GTGATGGA | 0.0126

Sequence | PBM E-score
CTTAATTA | -0.0232
CAGACTAC | -0.207
CAACCTTA | -0.259
ATAGACTC | -0.295
CAAGCCAA | -0.0388
GAGTAGCA | 0.0643
AGTACAAG | -0.104
AACACCAA | -0.203
ATCATTTC | 0.174
ATACAACG | 0.0691
CTAAAACC | 0.0462
CGGCCTAG | 0.0451
ACTACTCA | -0.154
ACGTACGT | -0.368
ACCGAGCG | 0.176
CGCGTCGA | 0.188
ACAGCACG | 0.191
AAAGGCAC | 0.0624
AAAGGGTA | -0.0997
AAGCGCCC | 0.115
TCAAATCA | -0.266
CGAGTCTA | -0.354
CAAGGGGA | -0.103
GAACATTA | 0.0236
ATTGCCTG | -0.0498

Sequence | PBM E-score
AGGGCCTG | -0.195
CCATCACA | -0.0736
AACTGATG | -0.0174
CACGGATG | 0.284
AGTATTAG | 0.109
AGCAACCA | 0.022
CGGTGACC | -0.182
AAATCGGC | 0.279
AAAAACCT | 0.0387
CTGCCCGA | 0.117
AAAGAGCA | 0.0111
GTTGCTCA | -0.158
GAGTTTCC | 0.174
CGGGACAG | 0.359
AGCGCCAA | -0.18
GTTACCAA | 0.0207
ACAGAGTC | -0.154
ACTCACCT | -0.177
GTACGAAA | -0.0942
ACTCTAGG | -0.276
GAACTATA | 0.21
CCGAGAGA | 0.225
CGGACAGC | 0.322
ACGCGCGA | 0.0808
AACTCATA | 0.0347

Sequence | PBM E-score
AGTTATAT | 0.0373
GATCCTCC | 0.0438
ACTCTAAT | -0.181
GCAGCAAA | -0.103
ACTCCAAC | 0.0325
CGGGGGGC | 0.0262
GGGCCCAA | 0.0863
CACGTGTC | -0.112
GGGATTGA | -0.0585
AAATCTAA | -0.155
AGTTTTGA | -0.083
CGGTATAC | 0.0238
GGTATGCA | -0.124
GCCTCACC | -0.0555
GGCTCGAC | -0.0845
CAGTATGC | -0.136
TATCTCGA | -0.134
AGTGTAAA | -0.0303
CGCTTGGA | -0.00701
AGAGGCCT | -0.225
ATCGATGG | 0.0106
AAGGTTGC | -0.0716
GTGCCAGA | -0.151
ACCTTCGG | 0.144
ATCAGCCC | -0.0307

Sequence | PBM E-score
CCATATTC | 0.0896
CAATGTCC | 0.0885
CCCCACCC | 0.31
CCCTACGC | -0.199
CTTCAGAA | -0.0866
GCCTGAAC | -0.29
GGGCCACC | 0.14
GTGTTTCA | -0.231
AAAGGAAA | 0.0486
ATGTAACA | -0.0778
CTCGGCGA | 0.307
GCTATAAC | -0.0734
AGGAAGGC | -0.185
AGCTGATA | -0.151
AAAAAGAC | -0.114
TCAGACGA | -0.0621
CTAAGTAC | -0.115
AAGAGGAC | -0.207
CACATCAC | -0.102
GCATAAAC | -0.00073
CACTAAGA | 0.00961
CGGGCCAA | 0.0916
ATCCTGTC | 0.115
ATAGCTCA | -0.1
AACATAGT | -0.0164

Sequence | PBM E-score
GACATTGC | -0.158
ATATTTAA | 0.0855
ATGGTCCC | -0.0703
CGGTACTC | -0.0123
TCACCCGA | 0.244
AAGAGCGG | 0.174
AGAGCAAT | -0.101
CACCTTTC | -0.0106
ATCGTAAA | -0.159
GGCGTGTA | -0.139
CTGGGTGA | -0.0478
GCAACGCA | 0.0114
ACGTAGCT | -0.31
GCAGCGCC | 0.0568
CGGTGTCC | 0.159
ACTTTTTA | -0.169
TGCCCTAA | -0.0596
AAGATAAC | 0.0309
CGACGTAA | -0.0605
GTCCCCGA | 0.166
CGACTCAA | 0.0233
ACCGGTAT | 0.145
CACAGCAA | 0.167
ACTGCTAT | -0.0643
CGGTAAAC | -0.0178

Sequence | PBM E-score
AAGGTGGA | -0.0739
AATGGCGC | 0.165
ATCCTGAA | 0.0708
AGACATCG | -0.178
CGATTACA | -0.074
ATGCCAAA | -0.234
AACTCGCG | 0.118
CTAATACC | 0.0346
ATTAGTTG | 0.0522
GCCTACTA | 0.009
ACTAGTCC | 0.0893
GGGTAAGA | -0.0459
TACCATCA | -0.219
AGGGGACC | -0.104
CGCTTTGA | -0.0624
ATAATAAA | 0.102
TAGACTCA | -0.0548
ACTCGGTC | 0.0175
GCGCAAGC | -0.0803
ACGCTTAA | -0.213
ACACCAGC | -0.156
CGAAGTTC | 0.111
AACTTGCC | -0.0147
AACCCGTG | 0.0393
TCTAAGCA | -0.193

Sequence | PBM E-score
AATAGTGG | -0.0207
AAAAATCT | -0.0176
GCAACCGA | -0.0157
GGATGTGA | 0.0186
CGGTCGGC | 0.104
AGAGTTAA | -0.244
AACGAGGA | 0.0301
GAACCCGC | 0.169
GGAATTCC | 0.299
AGAGTCGG | 0.0673
TCTACGCA | -0.211
GAACTCGA | 0.137
CACCAATG | -0.0351
AGAAAAGA | -0.124
CAGTTTAC | -0.16
AGTTTAGC | -0.192
AATGCACG | 0.116
GACCTCGC | 0.0162
GAAGACAC | 0.037
CCGATGGA | 0.129
CGTTTAAA | -0.0772
AAGTCACG | 0.0265
ATAATCCC | 0.196
CAAAATCC | 0.12
ATAACCAA | -0.0632

Sequence | PBM E-score
AGCCACAA | -0.0241
ACAAGACA | 0.0901
ACCGATAC | 0.00062
AGGGGCAG | -0.0868
AAAAGCAA | -0.0203
ATCCCGAC | 0.331
ATTGGTAG | -0.142
GCCGTAGA | 0.161
GGTAAGTA | -0.0804
ATGCGTTA | -0.0252
CGTAGTAG | -0.055
ATACGGAG | 0.242
ATTTCGAG | -0.0365
AATAGCAA | -0.049
GAATCGCA | -0.00329
CGTAGCGC | -0.214
GCTTCTTA | 0.0605
ATCGTTAG | -0.0972
AATCGAGA | 0.008

Source: the supplement of paper PMC3334620
